Test results published in PubChem BioAssay (NCI).
Where “and” joins values, the source holds several entries; their conditions need not be identical. Equal entries are not always repeated.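 How tested: cells in 96-well plates exposed to compound for 48 hours at five concentrations. GI50: concentration for 50% inhibition of growth. TGI denotes the concentration required for complete inhibition of growth.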

System: NCI-H322M lung
Experiment: DTP human tumour cell line panel, 48 h

SMILES	TGI	GI50
CC(=O)O[C@H]1C#C/C=C\C#CC[C@@H]2C(=O)N[C@@H]12	> 100 µM	
Cc1ccc2c(c1)[nH]c1cc(C(F)(F)F)ccc1[p+]2=O (centres undefined)	> 100 µM	
C1CCC2C(C1)CCCC2NC1=NCCO1 (centres undefined)	> 100 µM	
C=C1C(=O)O[C@H]2[C@H]1CC/C(COC(=O)c1ccc(Cl)nc1)=C\CC[C@@]1(C)O[C@@H]21	19.8 µM	6.87 µM
COc1ccc(Nc2c3ccccc3nc3occ(Cl)c23)cc1	21.9 µM	0.0458 µM
COc1ccc(/C(Cl)=C(\C=O)c2ccc(F)cc2)cc1OC	54.6 µM	
O=c1oc2ccccc2c(Nc2ccc3c(c2)Oc2ccccc2O3)c1[N+](=O)[O-]	> 100 µM	
NCCSc1nc2ccccc2c(=O)n1-c1ccccc1	> 100 µM	
Nc1nc(CCl)nc(Nc2ccccc2)n1	> 100 µM	
CCCCCCCCCCCCCCCCCC(=O)O[C@H](COC(=O)CCCCCCCCCCC)COC(=O)CCCCCCCCCCCCCCC	> 100 µM	
COc1cc2ncn(-c3cc(OCCc4ccccc4)c(C(N)=O)s3)c2cc1OC	> 25 µM	> 25 µM
O=C(Nc1cc(Cl)ccc1Cl)C(=O)C(c1cnc2ccccc2n1)[N+](=O)[O-] (centres undefined)	> 100 µM	
Cc1ccc(S(=O)(=O)OCC(=O)O)cc1	> 100 µM	
Nc1cccc(Nc2nc3ccccc3nc2NS(=O)(=O)c2ccccc2)c1	> 100 µM	
O=C(NC(Cc1ccc(I)cc1)C(=O)O)c1ccc(Br)cc1 (centres undefined)	> 100 µM	
O=C1c2ccccc2CCCCCCCCCCC12OCCCO2	> 100 µM	
C1CNCCNCCN1	> 100 µM	
CN1NC(=Nc2ccccc2)Sc2c1cnn(-c1ccccc1)c2=O	> 100 µM	
Cc1cc(C)[n+](CCOc2ccc(/C(=C(/Cl)c3ccccc3)c3ccccc3)cc2)c(C)c1	13.1 µM	
COc1ccc2[nH]c3c4c(ccc3c2c1)C(=O)C=CC4=O	59.5 µM	
C[C@]12CCc3nc(Nc4ccccc4)sc3C1=CC[C@@H]1[C@@H]2CC[C@]2(C)/C(=N/NC(N)=S)CC[C@@H]12	> 100 µM	> 100 µM
O=C(O)c1ccc(S(=O)(=O)c2ccccc2[N+](=O)[O-])cc1	> 10 µM	
Nc1ccc(N=Nc2ccccc2)cc1	> 100 µM	
O=C(CSc1nnc(Cc2ccccc2)o1)Nc1ccc([N+](=O)[O-])cc1	> 100 µM	
CC1CCC(=O)C(C(=O)CC2CC(=O)NC(=O)C2)C1 (centres undefined)	> 100 µM	
C=C1C(=O)CC2C(=O)C(C)(O)CC/C=C(\C)C(=O)CC12 (centres undefined)	> 100 µM	

SMILES	TGI	GI50
COc1cccc(-n2c3nc(=O)n(C)c(=O)c-3nc3ccccc32)c1	81 µM	
C[n+]1cc(C(O)c2ccc3c(c2)OCO3)c2ccccc2c1 (centres undefined)	> 100 µM	
NC1=NS(=O)(=O)Nc2nc(-c3ccc(Cl)cc3)c(-c3ccc(Cl)cc3)nc21	> 100 µM	
COc1ccc2ncn(-c3cc(O[C@H](C)c4ccccc4Cl)c(C(N)=O)s3)c2c1	> 25 µM	0.0326 µM
CN(C)c1ccc(C2SCC(=O)N2NS(=O)(=O)c2cccc(C(=O)O)c2)cc1 (centres undefined)	> 100 µM	
CCOC(=O)CNC(=O)c1ccccc1Nc1ccnc(C(F)(F)F)c1	98.9 µM	28.5 µM
Cc1cc(C2(O)C=C(C(C)(C)C)C(=O)C(C(C)(C)C)=C2)c(C)cc1C1(O)C=C(C(C)(C)C)C(=O)C(C(C)(C)C)=C1	> 100 µM	
COc1cc2c(c(OC)n1)[C@]1(O)[C@H](O)[C@H](CN(C)C)[C@@H](c3ccccc3)[C@]1(c1ccc(C#N)cc1)O2	1.83 µM and 1.31 µM	0.0328 µM and 0.0262 µM
N=C(N)SCc1cccc(-c2nc3ccccc3c(=O)o2)c1	> 100 µM	
C=C1C[C@]23CCC4C(C)(C)C(=O)CC[C@]4(C)C2C[C@H]1C(O)C3=O (some centres undefined)	> 75 µM	
COc1cc2c3c(n(CCCN(C)C)c(=O)c2cc1OC)-c1ccccc1C3=O	> 100 µM	23.6 µM
CCOC(=O)/C=C(/C(=O)OCC)n1ccc(N)nc1=O	> 100 µM	
Cc1cn(C2CC(n3cc(Cn4cc(Br)c(=O)[nH]c4=O)nn3)C(CO)O2)c(=O)[nH]c1=O (centres undefined)	> 100 µM	
O=C1NC(N/N=C/C(O)C(O)C(O)CO)=N/C1=C\c1ccco1 (centres undefined)	> 100 µM	
C[C@@]12CCCc3coc(c31)C(=O)c1cc3c(cc12)C(=O)C=CC3=O	> 1 µM	
COc1ccc(C2c3cc(OC)c(OC)cc3C(Cc3ccc([N+](=O)[O-])cc3)C2c2ccc([N+](=O)[O-])cc2)cc1OC (centres undefined)	> 100 µM	
COc1cc2c(cc1O)C1Cc3ccc(OC)c(O)c3C(C2)N1C (centres undefined)	> 100 µM	
Cc1ccc(C2(O)CC(c3ccc([N+](=O)[O-])o3)=NN2C(=O)COc2ccc(Cl)cc2)cc1 (centres undefined)	33.7 µM	
CCC(C#N)NC(=O)NC(C#N)CC (centres undefined)	> 100 µM	
Cc1ccc2nc(Cl)c(/C=N/N3C(=O)/C(=C/c4ccccc4S)N=C3c3ccccc3)cc2c1	> 100 µM	
C=CCCC(=O)CC(O)(C(F)(F)F)C(F)(F)F	> 100 µM	
O=C(O)CC[N+]1=CCC(c2ccccc2)(c2ccccc2)O1	> 100 µM	
NC(CS/C(Cl)=C/Cl)C(=O)O (centres undefined)	> 78.1 µM	24 µM
Cc1ccc2c(=O)cc(-c3cccs3)[nH]c2n1	> 100 µM	
Cn1cc(C2=C(c3cn(CCCCCN)c4ccccc34)C(=O)NC2=O)c2ccccc21	> 25 µM	17.4 µM
COC(=O)N/N=C(\C)C(CN1CCCCC1)C(C1=C(O)c2ccccc2OC1)c1ccccc1 (centres undefined)	> 100 µM	

SMILES	TGI	GI50
O=c1[nH]cnc2cccc(Cl)c12	> 100 µM	
Nc1ccc2[nH]c3c(-c4ccccc4)nccc3c2c1	> 100 µM	
O=C(OCC1OC2OC(c3ccccc3)(n3ccc4c([N+](=O)[O-])ccnc43)OC2C1OC(=O)c1ccccc1)c1ccccc1 (centres undefined)	> 100 µM	
COc1ccc2nc3ccccc3c(NCCCCCCN(CCCl)CCCl)c2c1	1.4 µM	
O=C1CC2C(=O)N(Cc3ccccc3)C1C=C2S(=O)(=O)c1ccccc1 (centres undefined)	> 100 µM	
CC(C)OC(=O)NNc1cc(Cl)ccc1Cl	> 100 µM	
O=[N+]([O-])c1ccc2c(c1)C(c1ccccc1Cl)=Nc1cn[nH]c1N2	> 25 µM	> 25 µM
COc1cc(C2SCC(=O)N2c2ccc(-c3ccc(-n4c(-c5ccccc5)nc5ccccc5c4=O)cc3)cc2)cc(OC)c1OC (centres undefined)	> 100 µM	
COc1ccc2c(O)cc3c(c2c1)[C@H](CCl)CN3C(=O)c1cc2cc(NC(=O)CCN3CCOCC3)ccc2[se]1	0.0835 µM	< 0.001 µM
O=C(CSC(c1ccccc1)c1ccccc1)N/N=C/c1ccc(Cl)cc1Cl	> 100 µM	75.1 µM
Cc1cn(C(Cc2ccccc2)OCCO)c(=O)[nH]c1=O (centres undefined)	> 100 µM	
O=C(/C=C/c1cc(CN2CCOCC2)c(O)c2ncccc12)c1cc(CN2CCOCC2)c(O)c2ncccc12	> 100 µM	0.573 µM
NC1=NS(=O)(=O)Nc2nc(-c3ccc([N+](=O)[O-])cc3)[nH]c21	> 100 µM	
CNC(=O)Oc1ccc(-c2cn3cc(OC(=O)NC)ccc3n2)cc1	> 100 µM	
COC(=O)/C(C=O)=C/Sc1ccccc1	> 100 µM	
CC12CCCCC1(C)C2Sc1ccccc1 (centres undefined)	> 100 µM	
COc1cc(C2=C(c3cn(C)c4ccccc34)COC2=O)cc(OC)c1OC	> 70.1 µM	0.41 µM
NC(=O)NNC(=O)c1nc[nH]c1[N+](=O)[O-]	> 100 µM	
O=C(Cc1ccccc1)NN1C(=O)/C(=C\c2cccc(O)c2)SC1=Nc1ccccc1	> 100 µM	
O=C(Nc1ccc(Br)cc1)c1ccc(Cl)c(Cl)c1	> 100 µM	2.98 µM
COC(=O)C1=C(C(=O)OC)SC2(S1)C1=C(CCCC1)SC(C(=O)OC)=C2C(=O)OC	8.92 µM	
NCCN=C(Nc1ccccc1)Nc1ccccc1	> 100 µM	
CC(=O)c1sc(-c2nc(C)c(C(=O)/C=C\c3ccc(/C=C\C(=O)c4sc(-c5nc(C)c(C(C)=O)s5)nc4C)cc3)s2)nc1C	> 100 µM	
COC(=O)C1=CC(=O)OC1(OO)c1ccccc1 (centres undefined)	> 100 µM	
N#C/C(=C/N1CCN(C(=O)c2ccco2)C1=S)C(=O)c1ccccc1	75.3 µM	23.4 µM
CCCCCC(=O)NC(=S)Nc1nn[nH]n1	> 100 µM	

SMILES	TGI	GI50
CN(C)C(=S)/N=c1\ss/c(=N\C(=S)N(C)C)n1-c1ccc(Cl)c(Cl)c1	> 100 µM	
Cc1cc(I)cc(CN(C)CCCN2CCOCC2)c1O	> 100 µM	53 µM
CC(=O)N1N=C(c2ccc3ccccc3c2O)CC1C(=O)c1ccco1 (centres undefined)	> 100 µM	
CN(O)C(=O)c1cccc(Cl)c1	> 100 µM	
O=C1[C@H]2ON(c3ccccc3)C(c3ccc(Cl)cc3)[C@H]2C(=O)N1c1ccc(Cc2ccc(N3C(=O)[C@@H]4ON(c5ccccc5)C(c5ccc(Cl)cc5)[C@@H]4C3=O)cc2)cc1 (some centres undefined)	> 100 µM	
CC(C)C(=O)/C=C/c1ccc(Br)cc1	39.5 µM	
Nc1nc(SN=Nc2ccc(S(N)(=O)=O)cc2)c2[nH]cnc2n1	> 100 µM	3.65 µM
CC(C)CCCC(C)[C@H]1CCC2[C@H]3C(CC[C@@]21C)[C@@]1(C)CCC=C[C@]12C[C@@H]2[C@@H]3O (some centres undefined)	> 100 µM	
CC(=O)O[C@H](C[C@H](C(C)C)N(C)C(=O)[C@@H](NC(=O)[C@H]1CCCCN1C)C(C)C)c1nc(C(=O)N[C@@H](Cc2ccccc2)C[C@H](C)C(=O)O)c(CCOCc2ccccc2)s1	> 10 µM	< 0.001 µM
Cc1ccn2c(=O)cc(-c3ccccc3)nc2c1	> 100 µM	
CC(=O)C1=C(C)NC2C=CC=CN12 (centres undefined)	> 100 µM	
O=C1OC2(OC2c2ccccc2)c2ccccc21 (centres undefined)	> 100 µM	
NP(=O)(OCC1=CC(=O)c2ccccc2C1=O)N(CCBr)CCBr (centres undefined)	13.6 µM	
Cc1c(C2=C(Br)C(=O)N(C)C2=O)c(=O)n(C)c(=O)n1C	> 100 µM	
CCC1(C(=O)OC(C)(C)C)OC12C(C)CCCC2C (centres undefined)	> 100 µM	
COc1cc(C)c2c(c1C)OC(=O)c1c(C)c(Cl)c(O)c(C=O)c1O2	84.2 µM	
CC(=O)O[C@H]1CC[C@@]2(C)C(=CC[C@H]3[C@@H]4C[C@H](N5CCCC5)[C@H](OC(C)=O)[C@@]4(C)CC[C@@H]32)C1	> 100 µM	
CC1Cn2c(nc3ccccc32)NC1=O (centres undefined)	> 100 µM	
Cc1ccc([C@H]2CC(=O)C[C@H](c3ccc(C)cc3)C23C(=O)c2ccccc2C3=O)cc1	> 100 µM	
Cc1cn2c(/C=C3\C(=O)N(C)c4ccc(O)cc43)c(C)nc2s1	> 100 µM	20.2 µM
COc1cc(CNc2ccc(SC)cc2)cc(OC)c1OC	> 100 µM	
O=C1c2ccccc2-c2nc(-c3cccc([N+](=O)[O-])c3)nnc21	22.6 µM	
CC(=O)/C=C/c1ccc(C#Cc2ccccc2)s1	28.2 µM	14.9 µM
COC(=O)OCC1OC(N2C(=O)NC(=O)C(Br)C2N=[N+]=[N-])CC1OC(=O)OC (centres undefined)	> 100 µM	
